pIC50: −log10 of the molar value. A lower IC50 marks a more sensitive line; where the fit passes the top or lowest dose, that dose stands as a limit. The AUC spans the tested range (256-fold, ending at the top dose) of the same fit: 1 means no effect, lower means more sensitive. For some of these results: An inferred top dose was calculated from the reported fits.
Legend:
Assay in all cases: Viability of human cancer cell lines after 72 h of drug (GDSC screen)
[1] = compound: O=c1cc(CN2CCOCC2)occ1OCCCCCSc1ccnc2cc(C(F)(F)F)ccc12 [EHT 1864]; conditions: top dose 10 µM; top dose inferred
Method: (§1)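 Human cancer cell lines in 384-well plates, medium with 10% serum, drug for 72 h over a 256-fold dose range (nine 2-fold or five 4-fold steps up to the top dose). Adherent lines were fixed and stained with the nucleic acid dye Syto60, suspension lines read with resazurin; signal relative to control wells, capped at 0 and 100%. One two-parameter sigmoid per drug and line, fitted in a mixed model over all curves with the slope shared within a line.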

[2] = compound: COc1cc2nccc(Oc3ccc(NC(=O)C4(C(=O)Nc5ccc(F)cc5)CC4)cc3)c2cc1OC [XL-184]; conditions: top dose 5.12 µM; top dose inferred
Method: as §1

[3] = compound: CNCc1ccc(-c2[nH]c3cc(F)cc4c3c2CCNC4=O)cc1 [AG-014699]; conditions: top dose 5 µM; top dose inferred
Method: as §1

[4] = compound: COc1cc2ncnc(Nc3ccc(F)c(Cl)c3)c2cc1OCCCN1CCOCC1 [Gefitinib]; conditions: top dose 0.5 µM
Method: as §1

[5] = compound: C=CC(=O)Nc1cc(NC(=O)c2ccc(C)c(NC(=O)c3ccno3)c2)cc(C(F)(F)F)c1 [QL-XI-92]; conditions: top dose 10.24 µM; top dose inferred
Method: as §1

[6] = compound: CCC1=C[C@@H]2CN(C1)Cc1c([nH]c3ccccc13)[C@@](C(=O)OC)(c1cc3c(cc1OC)N(C)[C@H]1[C@@](O)(C(=O)OC)[C@H](OC(C)=O)[C@]4(CC)C=CCN5CC[C@]31[C@@H]54)C2 [Vinorelbine]; conditions: top dose 0.064 µM; top dose inferred
Method: as §1

[7] = compound: COc1cc2ncnc(Nc3cc(Br)c(O)c(Br)c3)c2cc1OC [WHI-P97]; conditions: top dose 10.24 µM; top dose inferred
Method: as §1

[8] = compound: N=C(N)NC(=N)NCCc1ccccc1 [Phenformin]; conditions: top dose 4000 µM; top dose inferred
Method: as §1

[9] = compound: Cc1ccc(-c2c(C(=O)CF)n(CCCO)c3ncnc(N)c23)cc1 [FMK]; conditions: top dose inferred
Method: as §1

Cell Line	AUC [1]	pIC50 [1]	AUC [2]	pIC50 [2]	AUC [3]	pIC50 [3]	AUC [4]	pIC50 [4]	AUC [5]	pIC50 [5]	AUC [6]	pIC50 [6]	AUC [7]	pIC50 [7]	AUC [8]	pIC50 [8]	AUC [9]	pIC50 [9]
A2058 (melanoma, adherent)	0.961	< 5.00	0.989	< 5.29	0.934	< 5.30	0.963	< 6.30	0.93	< 4.99	0.491	8.42	0.99	< 4.99	0.835	2.65		
ABC-1 (lung adenocarcinoma, adherent)	0.895	< 5.00	0.911	< 5.29	0.983	< 5.30	0.972	< 6.30	0.941	< 4.99	0.564	8.21	0.956	< 4.99	0.695	3.00		
ACHN (kidney, adherent)	0.921	< 5.00	0.935	< 5.29	0.945	< 5.30	0.787	6.60	0.967	< 4.99	0.832	7.31	0.916	< 4.99	0.823	2.55		
AN3-CA (endometrium, adherent)	0.97	< 5.00	0.869	< 5.29	0.984	< 5.30	0.985	< 6.30	0.976	< 4.99	0.549	8.26	0.969	< 4.99	0.96	< 2.40		
CFPAC-1 (pancreas, adherent)	0.983	< 5.00	0.962	< 5.29	0.948	< 5.30	0.936	< 6.30	0.948	< 4.99	0.688	7.84	0.97	< 4.99	0.981	< 2.40		
DMS-53 (small cell lung carcinoma, adherent)	0.903	< 5.00	0.988	< 5.29	0.955	< 5.30	0.988	< 6.30	0.988	< 4.99	0.955	< 7.19	0.988	< 4.99	0.531	3.51		
Daoy (medulloblastoma, adherent)	0.975	< 5.00	0.963	< 5.29	0.95	< 5.30	0.971	< 6.30	0.885	5.03	0.607	8.12	0.976	< 4.99	0.756	2.90		
EFM-19 (breast, adherent)	0.952	< 5.00	0.901	< 5.29	0.965	< 5.30	0.976	< 6.30	0.978	< 4.99	0.547	8.24	0.976	< 4.99	0.868	< 2.40		
EPLC-272H (lung squamous cell carcinoma, adherent)	0.961	< 5.00	0.842	5.36	0.966	< 5.30	0.916	< 6.30	0.866	< 4.99	0.486	8.44	0.961	< 4.99	0.418	3.84		
G-402 (soft tissue, adherent)	0.831	5.02	0.808	5.42	0.859	< 5.30	0.975	< 6.30	0.883	< 4.99	0.569	8.18	0.968	< 4.99	0.559	3.42		
G-MEL (melanoma, adherent)	0.936	< 5.00	0.96	< 5.29			0.961	< 6.30	0.876	5.00	0.857	7.29	0.962	< 4.99	0.66	3.16		
H2722 (mesothelioma, adherent)	0.966	< 5.00	0.955	< 5.29	0.973	< 5.30	0.984	< 6.30	0.97	< 4.99	0.776	7.52	0.95	< 4.99	0.983	< 2.40		
HCC70 (breast, adherent)	0.967	< 5.00	0.975	< 5.29	0.985	< 5.30	0.928	< 6.30	0.983	< 4.99	0.647	8.00	0.987	< 4.99	0.829	2.62		
HMV-II (melanoma, adherent)	0.96	< 5.00	0.964	< 5.29	0.982	< 5.30	0.963	< 6.30	0.941	< 4.99	0.533	8.30	0.981	< 4.99	0.691	3.01		
HOP-92 (large cell lung carcinoma, adherent)	0.966	< 5.00	0.982	< 5.29	0.96	< 5.30	0.984	< 6.30	0.984	< 4.99	0.862	< 7.19	0.984	< 4.99	0.878	< 2.40		
HSC-4 (head and neck, adherent)	0.92	< 5.00	0.957	< 5.29	0.902	< 5.30	0.607	7.17	0.978	< 4.99	0.925	< 7.19	0.961	< 4.99	0.835	2.40		
JHH-6 (liver, adherent)	0.882	< 5.00	0.963	< 5.29	0.93	< 5.30	0.987	< 6.30	0.985	< 4.99	0.839	7.35	0.978	< 4.99	0.952	< 2.40		
KYSE-70 (oesophagus, adherent)	0.962	< 5.00	0.984	< 5.29	0.977	< 5.30	0.959	< 6.30	0.977	< 4.99	0.679	7.88	0.974	< 4.99	0.89	< 2.40		
M14 (melanoma, adherent)	0.975	< 5.00	0.874	< 5.29	0.974	< 5.30	0.984	< 6.30	0.978	< 4.99	0.745		0.94	< 4.99	0.611	3.29		

Cell Line	AUC [1]	pIC50 [1]	AUC [2]	pIC50 [2]	AUC [3]	pIC50 [3]	AUC [4]	pIC50 [4]	AUC [5]	pIC50 [5]	AUC [6]	pIC50 [6]	AUC [7]	pIC50 [7]	AUC [8]	pIC50 [8]	AUC [9]	pIC50 [9]
MDA-MB-175-VII (breast, adherent)	0.923	< 5.00	0.978	< 5.29	0.988	< 5.30	0.873	< 6.30	0.941	< 4.99	0.921	< 7.19	0.927	< 4.99	0.845	2.48		
MKN45 (stomach, adherent)	0.956	< 5.00			0.953	< 5.30	0.979	< 6.30	0.978	< 4.99	0.416	8.66	0.981	< 4.99	0.877	< 2.40		
Mewo (melanoma, adherent)	0.912	< 5.00	0.982	< 5.29	0.972	< 5.30	0.942	< 6.30	0.981	< 4.99	0.705	7.77	0.984	< 4.99	0.665	3.10		
NCI-H441 (lung adenocarcinoma, adherent)	0.972	< 5.00	0.977	< 5.29	0.973	< 5.30	0.946	< 6.30	0.975	< 4.99	0.729	7.62	0.965	< 4.99	0.783	2.61		
NCI-H1734 (lung adenocarcinoma, adherent)	0.985	< 5.00	0.958	< 5.29	0.983	< 5.30	0.967	< 6.30	0.971	< 4.99	0.689	7.84	0.982	< 4.99	0.634	3.21		
NCI-H2029 (small cell lung carcinoma, adherent)	0.991	< 5.00	0.992	< 5.29	0.983	< 5.30	0.988	< 6.30	0.974	< 4.99	0.889	7.22	0.984	< 4.99	0.486	3.64		
PA-TU-8988T (pancreas, adherent)	0.924	< 5.00	0.951	< 5.29	0.957	< 5.30	0.977	< 6.30	0.979	< 4.99	0.664	7.94	0.978	< 4.99	0.813	2.67		
PANC-08-13 (pancreas, adherent)	0.954	< 5.00	0.849	< 5.29	0.953	< 5.30	0.965	< 6.30	0.964	< 4.99	0.815	7.32	0.947	< 4.99	0.722	2.89		
RMG-I (ovary, adherent)			0.913	< 5.29			0.954	< 6.30	0.945	< 4.99	0.869	< 7.19	0.853	4.99	0.722	2.92		
SCC-4 (head and neck, adherent)	0.915	< 5.00	0.965	< 5.29	0.924	< 5.30	0.891	< 6.30	0.984	< 4.99	0.446	8.56	0.961	< 4.99	0.822	2.53		
SK-MEL-24 (melanoma, adherent)	0.929	< 5.00			0.983	< 5.30	0.963	< 6.30	0.983	< 4.99	0.978	< 7.19	0.927	< 4.99	0.727	2.89		
VMRC-RCW (kidney, adherent)			0.919	< 5.29			0.981	< 6.30	0.965	< 4.99	0.885	7.21	0.976	< 4.99	0.894	< 2.40		
YKG-1 (glioma, adherent, top dose 20 µM)																	0.984	< 4.70
YMB-1-E (breast, adherent, top dose 20 µM)																	0.981	< 4.70
YT (lymphoid neoplasm, suspension, top dose 20 µM)																	0.895	4.75
huH-1 (liver, adherent, top dose 20 µM)																	0.984	< 4.70
no-10 (glioma, adherent, top dose 20 µM)																	0.973	< 4.70
no-11 (glioma, adherent, top dose 20 µM)																	0.983	< 4.70

Source: the supplement of paper PMC4967469
